Inconclusive results, whose numbers are uncertain, are shown with a selection of clear calls. For some assays here: Potencies beside an inconclusive call are fits to weak or partial responses and may not hold up. Activity calls are given as the source filed them. Unless noted, the call rests on the fitted dose curve; in most records, active means well fitted curve in the direction sought with a large enough effect; inconclusive means small, poorly fitted or top-dose-only effect, or another doubt; inactive means no such curve, though single readings can be large; an effect the other way counts as inactive or inconclusive.
Assays:
[1] = qHTS to identify inhibitors of the type 1 interferon - major histocompatibility complex class I in skeletal muscle: primary screen against the NCATS Pharmaceutical Collection (AID 1347407); conditions: human skeletal muscle cells, IFN-b-induced MHC-I HiBiT luminescence, 24 h; activity change, negative = inhibition: at 45.9 µM (top of the series);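 further: luminescence of HiBiT knocked into endogenous HLA-B as interferon-induced MHC class I level; on the % scale 0 is the no-effect control and ±100 the full control effect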
Method in brief: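 Luminescence from HiBiT-tagged endogenous HLA-B*08:01 served as the read-out of IFN-beta-induced MHC class I in CRISPR-engineered C25cl48 myoblasts. Cells received 4 ng/ml IFN-beta plus compound (high final 46 uM, […]) for 24 h.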

[2] = biological target: Lysine-specific demethylase 5B (Homo sapiens) (UniProt Q9UGL1); assay: Optimization screen for KDM5B Histone Demethylases FDH coupled qHTS against the LOPAC library (AID 1347166); conditions: KDM5B demethylation, FDH-coupled NADH fluorescence (FDH is formaldehyde dehydrogenase); series mostly up to 57.5 µM; further: 0% is about no effect
Sequence of UniProt Q9UGL1 (Q9UGL1 whole entry, looked up): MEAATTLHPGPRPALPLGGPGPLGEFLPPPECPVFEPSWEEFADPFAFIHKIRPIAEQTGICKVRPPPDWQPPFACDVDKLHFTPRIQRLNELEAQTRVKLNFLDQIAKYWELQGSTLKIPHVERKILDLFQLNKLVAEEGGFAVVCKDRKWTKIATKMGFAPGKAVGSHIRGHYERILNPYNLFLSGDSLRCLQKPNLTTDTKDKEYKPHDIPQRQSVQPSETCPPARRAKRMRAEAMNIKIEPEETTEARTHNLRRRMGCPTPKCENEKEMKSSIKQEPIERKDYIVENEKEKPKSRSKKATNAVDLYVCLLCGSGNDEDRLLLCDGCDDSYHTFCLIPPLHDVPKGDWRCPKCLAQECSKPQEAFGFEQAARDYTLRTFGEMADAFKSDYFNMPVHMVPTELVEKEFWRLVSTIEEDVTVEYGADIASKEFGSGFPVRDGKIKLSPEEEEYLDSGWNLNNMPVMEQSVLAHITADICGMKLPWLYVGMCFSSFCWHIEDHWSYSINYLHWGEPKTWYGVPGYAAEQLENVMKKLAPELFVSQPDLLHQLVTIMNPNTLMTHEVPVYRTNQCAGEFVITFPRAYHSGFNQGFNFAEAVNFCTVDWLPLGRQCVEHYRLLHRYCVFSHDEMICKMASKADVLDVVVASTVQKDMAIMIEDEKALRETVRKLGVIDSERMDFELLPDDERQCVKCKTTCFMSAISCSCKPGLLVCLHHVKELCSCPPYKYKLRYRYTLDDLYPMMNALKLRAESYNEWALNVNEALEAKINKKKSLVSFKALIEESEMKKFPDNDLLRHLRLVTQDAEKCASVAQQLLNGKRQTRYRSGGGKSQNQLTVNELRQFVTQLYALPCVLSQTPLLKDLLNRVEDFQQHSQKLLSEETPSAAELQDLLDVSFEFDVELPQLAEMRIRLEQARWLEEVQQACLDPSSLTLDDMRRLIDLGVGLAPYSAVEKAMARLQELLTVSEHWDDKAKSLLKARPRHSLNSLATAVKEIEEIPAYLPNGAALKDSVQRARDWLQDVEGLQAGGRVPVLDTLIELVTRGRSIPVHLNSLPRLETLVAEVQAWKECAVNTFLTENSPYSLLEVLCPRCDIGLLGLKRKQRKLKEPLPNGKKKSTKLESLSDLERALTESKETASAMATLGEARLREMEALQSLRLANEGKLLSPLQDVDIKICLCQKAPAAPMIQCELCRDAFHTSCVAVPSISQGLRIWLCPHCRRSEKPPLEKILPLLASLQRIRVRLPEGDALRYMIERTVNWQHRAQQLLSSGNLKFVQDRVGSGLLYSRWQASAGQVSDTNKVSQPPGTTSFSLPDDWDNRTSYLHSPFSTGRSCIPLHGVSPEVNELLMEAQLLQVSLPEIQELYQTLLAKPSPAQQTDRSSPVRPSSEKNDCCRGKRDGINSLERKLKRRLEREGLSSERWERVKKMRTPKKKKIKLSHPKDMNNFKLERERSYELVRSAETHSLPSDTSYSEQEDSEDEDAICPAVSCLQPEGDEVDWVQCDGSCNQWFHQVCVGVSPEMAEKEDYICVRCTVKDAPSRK
Method in brief: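 KDM5BDeltaAP (200nM final) preincubated 10 min with compound, then 12.5uM H3K4Me3, 25uM a-ketoglutarate, ascorbate, Fe(II), NAD+ and FDH added; 50mM HEPES pH 7.5, 0.01% Tween-20. NADH fluorescence (340/450 nm) change over 30 min, room temperature.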

[3] = biological target: Rap guanine nucleotide exchange factor 4 (Homo sapiens) (UniProt Q8WZA2); assay: Confirmatory qHTS for antagonist of cAMP-regulated guanine nucleotide exchange factor 4 (EPAC2) (AID 1645885); conditions: EPAC2 Rap1B-BODIPY-GDP exchange fluorescence, biochemical; further: potency means the concentration at half of the fitted maximal effect; nearly all actives have a fitted effect of over 25% in size
Sequence of UniProt Q8WZA2 (Q8WZA2 whole entry, looked up): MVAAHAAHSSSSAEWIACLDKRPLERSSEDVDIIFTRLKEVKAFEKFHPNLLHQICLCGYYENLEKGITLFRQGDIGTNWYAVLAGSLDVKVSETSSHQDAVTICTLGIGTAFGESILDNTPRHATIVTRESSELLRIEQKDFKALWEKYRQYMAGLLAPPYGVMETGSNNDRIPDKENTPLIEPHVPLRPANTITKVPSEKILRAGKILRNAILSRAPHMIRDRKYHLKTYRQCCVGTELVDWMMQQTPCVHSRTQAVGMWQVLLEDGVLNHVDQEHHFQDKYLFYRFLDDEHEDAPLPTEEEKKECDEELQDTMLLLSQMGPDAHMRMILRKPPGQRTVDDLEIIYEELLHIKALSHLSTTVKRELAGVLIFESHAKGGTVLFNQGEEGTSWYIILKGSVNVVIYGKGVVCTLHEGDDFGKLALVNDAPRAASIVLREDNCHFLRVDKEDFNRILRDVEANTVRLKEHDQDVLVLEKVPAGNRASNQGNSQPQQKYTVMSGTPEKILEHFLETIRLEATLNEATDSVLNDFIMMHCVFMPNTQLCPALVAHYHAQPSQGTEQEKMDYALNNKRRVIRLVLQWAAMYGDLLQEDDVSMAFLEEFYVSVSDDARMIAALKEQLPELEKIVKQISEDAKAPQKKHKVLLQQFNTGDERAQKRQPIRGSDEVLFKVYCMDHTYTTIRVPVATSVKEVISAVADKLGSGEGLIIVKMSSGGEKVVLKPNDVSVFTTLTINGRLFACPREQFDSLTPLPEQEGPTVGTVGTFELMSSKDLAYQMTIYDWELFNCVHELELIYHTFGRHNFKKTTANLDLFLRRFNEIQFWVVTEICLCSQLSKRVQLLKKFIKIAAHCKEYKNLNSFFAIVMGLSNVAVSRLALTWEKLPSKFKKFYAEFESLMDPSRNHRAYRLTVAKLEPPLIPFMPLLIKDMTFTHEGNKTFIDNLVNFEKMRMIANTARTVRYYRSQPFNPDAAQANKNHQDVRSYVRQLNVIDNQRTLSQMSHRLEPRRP

[4] = biological target: Vitamin D3 receptor (Homo sapiens) (UniProt P11473); assay: qHTS assay for small molecule antagonists of vitamin D receptor signaling (AID 588541; calls by dose curve;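 further: receptor activated by calcitriol during compound treatment; on the % scale 0 is the no-effect control and ±100 the full control effect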); conditions: HEK293T VDR-UAS-bla, beta-lactamase ratio, antagonist mode; activity change, negative = inhibition: at 76.7 µM (top of the series)
[5] = qHTS for differential inhibitors of proliferation of Plasmodium falciparum line 7G8 (AID 1815); conditions: Plasmodium falciparum 7G8 proliferation inhibition; series mostly up to 28.7 µM;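 further: parasite growth measured after three days of incubation; plate controls were vehicle wells for no effect and reference inhibitor wells for full effect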
[6] = qHTS for differential inhibitors of proliferation of Plasmodium falciparum line HB3 (AID 1886); conditions: Potency: Plasmodium falciparum HB3 proliferation inhibition; series mostly up to 28.7 µM;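 further: parasites grown with compound for 72 h before SYBR Green readout; plate controls were vehicle for no effect and reference inhibitor for full effect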
[7] = system: Zika virus NS2B-NS3 protease; assay: Primary screen GU AMC qHTS for Zika virus inhibitors (AID 1347154); conditions: Zika NS2B-NS3 unlinked protease, AMC fluorogenic substrate; series mostly up to 54.1 µM; further: potency means the concentration at half of the fitted maximal effect; nearly all actives have a fitted effect of over 70% in size
Method in brief: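 Unlinked Zika NS2B hydrophilic domain/NS3 protease domain noncovalent complex (25 nM final) in 10 mM Tris-HCl pH 8.0, 0.01% Tween 20, with AMC peptide substrate. Fluorescence (ex 340, em 450 nm) change over 15 min, room temperature; percent inhibition fitted to 4-parameter Hill equation.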

[8] = biological target: Nuclear receptor ROR-gamma (Homo sapiens) (UniProt P51449); assay: qHTS assay for small molecule antagonists of the retinoid-related orphan receptor gamma (ROR-gamma) signaling pathway (AID 651802); conditions: ROR-gamma antagonist cell reporter assay; series mostly up to 92.2 µM; further: potency means the concentration at half of the fitted maximal effect; nearly all actives have a fitted effect of over 60% in size
Sequence of UniProt P51449 (P51449 whole entry, looked up): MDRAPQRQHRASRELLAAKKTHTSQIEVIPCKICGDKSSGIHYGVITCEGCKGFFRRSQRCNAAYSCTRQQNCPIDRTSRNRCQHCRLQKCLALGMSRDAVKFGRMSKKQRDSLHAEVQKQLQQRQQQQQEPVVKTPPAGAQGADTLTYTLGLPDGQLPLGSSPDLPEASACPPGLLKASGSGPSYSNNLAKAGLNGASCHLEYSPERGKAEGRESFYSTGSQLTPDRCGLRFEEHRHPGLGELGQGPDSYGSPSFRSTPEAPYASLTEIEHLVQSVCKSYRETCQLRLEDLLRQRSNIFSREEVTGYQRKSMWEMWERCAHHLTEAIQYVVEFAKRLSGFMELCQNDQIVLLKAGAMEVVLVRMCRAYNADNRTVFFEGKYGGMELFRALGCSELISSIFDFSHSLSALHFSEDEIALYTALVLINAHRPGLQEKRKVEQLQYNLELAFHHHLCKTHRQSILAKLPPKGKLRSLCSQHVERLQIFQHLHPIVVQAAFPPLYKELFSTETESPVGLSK
Method in brief: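 CHO cells carrying TET-inducible ROR-gamma and an ROR response element–luciferase reporter were exposed to compound, then induced with doxycycline. After 16hr at 37C, luminescence was read; lower signal indicates antagonism.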

[9] = biological target: Furin (Homo sapiens) (UniProt P09958); assay: Furin counterscreen qHTS for Zika virus inhibitors (AID 1347149); conditions: furin enzymatic counterscreen, fluorogenic substrate; activity change, negative = inhibition: at 57.5 µM (top of the series); further: potency means the concentration at half of the fitted maximal effect; nearly all actives have a fitted effect of over 70% in size
Sequence of UniProt P09958 (P09958 whole entry, looked up): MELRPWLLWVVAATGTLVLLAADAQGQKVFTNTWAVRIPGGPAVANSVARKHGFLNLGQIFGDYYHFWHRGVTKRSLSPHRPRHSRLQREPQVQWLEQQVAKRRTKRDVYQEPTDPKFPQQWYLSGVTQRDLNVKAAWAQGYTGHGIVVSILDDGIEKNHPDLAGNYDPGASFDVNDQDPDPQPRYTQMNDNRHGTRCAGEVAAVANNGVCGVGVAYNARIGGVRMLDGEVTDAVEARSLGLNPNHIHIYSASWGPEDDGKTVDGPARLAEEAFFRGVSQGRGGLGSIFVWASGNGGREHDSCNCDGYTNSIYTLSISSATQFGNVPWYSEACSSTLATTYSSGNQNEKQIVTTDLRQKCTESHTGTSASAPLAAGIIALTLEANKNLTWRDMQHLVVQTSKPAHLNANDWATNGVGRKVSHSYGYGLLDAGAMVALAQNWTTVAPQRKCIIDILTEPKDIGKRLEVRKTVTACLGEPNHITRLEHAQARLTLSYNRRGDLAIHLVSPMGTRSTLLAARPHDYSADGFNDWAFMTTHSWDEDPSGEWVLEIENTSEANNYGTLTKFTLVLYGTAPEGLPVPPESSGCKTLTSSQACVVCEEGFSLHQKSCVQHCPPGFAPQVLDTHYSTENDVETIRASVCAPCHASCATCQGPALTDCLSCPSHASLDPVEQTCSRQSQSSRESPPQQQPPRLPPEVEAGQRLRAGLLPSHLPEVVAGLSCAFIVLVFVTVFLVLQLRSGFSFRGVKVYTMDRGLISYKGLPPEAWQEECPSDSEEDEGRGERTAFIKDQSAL
Method in brief: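 Fluorogenic cleavage of BOC-RVRR-AMC (2 microM final, Km ~15 µM) was monitored (ex 340, em 450 nm) at 37C after 15 min RT preincubation of 5 nM furin with compounds in HEPES pH 7.0 buffer with CaCl2 and Triton X-100. Percent inhibition was fitted to a 4-parameter Hill curve.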

[10] = system: Zika virus NS2B-NS3 protease (unlinked complex); assay: Confirmatory screen GU AMC qHTS for Zika virus inhibitors (AID 1347153); conditions: Recombinant NS2B-NS3 protease, AMC substrate fluorescence; series mostly up to 57.1 µM;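 further: enzyme at 25 nM with substrate at 10 µM below its Km of 18.3 µM; potency means the concentration at half of the fitted maximal effect; nearly all actives have a fitted effect of over 70% in size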
Method in brief: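 Noncovalent NS2B hydrophilic domain/NS3 protease complex (25 nM) in 10 mM Tris-HCl pH 8.0, 0.01% Tween 20 was preincubated 15 min at room temperature with compounds. Then 10 µM AMC substrate (Km 18.3 µM) was added; fluorescence was read over 15 min and fitted to a 4-parameter Hill equation.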

[11] = Cellular Toxicity (caspase-3) Jurkat (AID 655); conditions: Jurkat caspase-3 activation, luminescence, DMSO = 0%, tamoxifen = 100%; at 92.2 µM (top of the series);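 further: cells exposed to compound for 16 h at 37 °C before reading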
Method in brief: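 5000 Jurkat cells/well; compound 16 hr, 37 °C; Caspase-Glo 3/7 added, 20 min RT; luminescence read. Norm: DMSO = 0%, tamoxifen 100 uM = 100%. AC50, Hill model.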

[12] = Cellular Toxicity (caspase-3) Hek293 (AID 664); conditions: HEK293 caspase-3 activation, DMSO = 0%, 100 µM tamoxifen = 100%; at 92.2 µM (top of the series);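 further: cells exposed to compound for 16 h at 37 °C before readout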
Method in brief: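 HEK293 cells were exposed to compounds in complete medium for 16 hr at 37 °C, then caspase-3/7 activity was read by Caspase-Glo 3/7 luminescence after 20 min at room temperature. Data normalized to DMSO and 100 uM tamoxifen; AC50 from Hill fits.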

[13] = Cell Viability - LYMP2-009 (AID 968); conditions: LYMP2-009 lymphoblastoid cell viability; series mostly up to 92.2 µM; further: potency means the concentration at half of the fitted maximal effect; nearly all actives have a fitted effect of over 55% in size
[14] = Cell Viability - LYMP2-017 (AID 972); conditions: LYMP2-017 lymphoblastoid cell viability; further: potency means the concentration at half of the fitted maximal effect; nearly all actives have a fitted effect of over 55% in size
Method in brief: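 Human lymphoblastoid cells (2500/well) were seeded in complete medium, held 5 hr at 37 C, then exposed to compounds for 24 hr at 37 C. Intracellular ATP was read by CellTiter-Glo luminescence after 30 min at room temperature, with AC50 values from Hill-equation fits.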

[15] = Cell Viability - LYMP2-021 (AID 974); conditions: LYMP2-021 lymphoblastoid cells viability; series mostly up to 92.2 µM;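 further: potency means the concentration at half of the fitted maximal effect; compound exposure lasts 24 hours at 37 °C; nearly all actives have a fitted effect of over 55% in size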
Method in brief: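 Human lymphoblastoid cells (2500/well) were preincubated 5 hr at 37 C, then exposed to compounds for 24 hr at 37 C in complete medium. Intracellular ATP was read by CellTiter-Glo luminescence; AC50 came from Hill-equation fits of concentration-response data.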

[16] = Cell Viability - LYMP2-022 (AID 987); conditions: LYMP2-022 lymphoblastoid cell viability; further: potency means the concentration at half of the fitted maximal effect; nearly all actives have a fitted effect of over 55% in size
Method in brief: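 Human lymphoblastoid cells, 2500/well, preincubated 5 hr at 37 C, then exposed to compounds over a concentration range for 24 hr at 37 C in complete medium. Viability read as intracellular ATP by CellTiter-Glo luminescence after 30 min at room temperature; AC50 from Hill fits.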

[17] = Cell Viability - LYMP2-008 (AID 980); conditions: LYMP2-008 lymphoblastoid cell viability, qHTS; series mostly up to 92.2 µM; further: potency means the concentration at half of the fitted maximal effect; nearly all actives have a fitted effect of over 60% in size
Method in brief: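 Human lymphoblastoid cells (2500/well) were plated, held 5 hr at 37 C, then exposed to compounds for 24 hr at 37 C in complete medium. Intracellular ATP was read by CellTiter-Glo luminescence; AC50 from Hill-fitted concentration-response.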

[18] = biological target: Cytochrome P450 3A4 (Homo sapiens) (UniProt P08684); assay: qHTS for inhibitors of CYP3A4 against the NCATS DSHEA and TCM libraries (AID 1919971); conditions: recombinant CYP3A4 enzyme activity, luminescence qHTS; series mostly up to 18.8 µM; further: potency means the concentration at half of the fitted maximal effect
Sequence of UniProt P08684 (P08684 whole entry, looked up): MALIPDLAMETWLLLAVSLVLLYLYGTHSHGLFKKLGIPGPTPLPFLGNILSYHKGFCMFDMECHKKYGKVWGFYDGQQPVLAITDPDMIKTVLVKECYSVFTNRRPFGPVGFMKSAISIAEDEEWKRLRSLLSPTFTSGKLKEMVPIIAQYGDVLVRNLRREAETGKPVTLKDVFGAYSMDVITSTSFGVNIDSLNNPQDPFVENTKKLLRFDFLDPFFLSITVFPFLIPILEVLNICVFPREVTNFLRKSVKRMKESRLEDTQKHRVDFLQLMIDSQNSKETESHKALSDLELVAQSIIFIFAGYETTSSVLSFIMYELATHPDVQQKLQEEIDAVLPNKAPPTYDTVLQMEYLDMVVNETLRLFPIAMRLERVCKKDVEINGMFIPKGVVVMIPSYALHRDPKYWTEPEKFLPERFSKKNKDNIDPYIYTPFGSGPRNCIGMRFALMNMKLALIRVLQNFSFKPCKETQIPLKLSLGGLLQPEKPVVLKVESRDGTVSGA
Method in brief: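 Luminescent P450-Glo readout. Enzyme plus pro-luciferin substrate in manufacturer buffer (typically 100 mM KPO4); 15 min RT preincubation; 1x NADPH regenerating system, 30-45 min RT in the dark; detection reagent 30 min.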

[19] = biological target: Cytochrome P450 2D6 (Homo sapiens) (UniProt P10635); assay: qHTS for inhibitors of CYP2D6 against the NCATS DSHEA and TCM libraries (AID 1919972); conditions: CYP2D6 enzymatic inhibition, luminescence qHTS; series mostly up to 34.1 µM; further: potency means the concentration at half of the fitted maximal effect
Sequence of UniProt P10635 (P10635 whole entry, looked up): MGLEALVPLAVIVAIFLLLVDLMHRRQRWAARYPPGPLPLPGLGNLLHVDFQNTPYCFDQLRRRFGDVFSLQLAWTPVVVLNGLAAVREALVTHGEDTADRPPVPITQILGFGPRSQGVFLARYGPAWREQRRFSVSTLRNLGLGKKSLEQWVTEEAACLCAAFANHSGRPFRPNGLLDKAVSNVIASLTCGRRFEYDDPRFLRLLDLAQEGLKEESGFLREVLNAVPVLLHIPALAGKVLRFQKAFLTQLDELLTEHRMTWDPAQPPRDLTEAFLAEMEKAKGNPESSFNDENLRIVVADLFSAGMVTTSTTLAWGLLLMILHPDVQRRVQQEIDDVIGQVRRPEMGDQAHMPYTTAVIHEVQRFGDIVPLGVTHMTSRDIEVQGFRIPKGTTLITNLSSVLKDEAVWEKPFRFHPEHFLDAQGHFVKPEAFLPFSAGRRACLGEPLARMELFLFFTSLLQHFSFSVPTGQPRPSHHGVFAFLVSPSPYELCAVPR
Method in brief: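 Steps: enzyme plus luciferin substrate dispensed; test substances pinned; 15 min RT; 1x NADPH regenerating solution added, 30–45 min RT protected from light; detection reagent, 30 min RT; luminescence measured. Minus-enzyme wells as background.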

[20] = qHTS of pediatric cancer cell lines to identify multiple opportunities for drug repurposing: Primary screen for TC32 cells (AID 1347089); conditions: TC32 Ewing sarcoma viability, CellTiter-Glo luminescence, 48 h; series mostly up to 45.8 µM; further: on the % scale 0 is the no-effect control and ±100 the full control effect; nearly all actives have a fitted effect of over 60% in size
Method in brief: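 qHTS, TC32, 48 h drug treatment, CellTiter-Glo luminescence as a proxy for metabolically active cells; primary top concentration 46 µM (MIPE 11-pt, NPC 8-pt); confirmatory 11-pt.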
Tags describe the fitted curve by direction and shape.

O=C(O)Cc1csc(-c2ccc(Cl)cc2)n1
Potency [1]: inactive

C[C@@H]1C(=O)NC2=Nc3cccc(Cl)c3CN21
Potency [2]: inactive

CCC(=O)O[C@H]1CC[C@H]2[C@@H]3CCc4cc(O)ccc4[C@H]3CC[C@]12C
Potency [3]: active: 27.8 µM

CO[C@@H]1[C@H](OC(=O)/C=C/C=C/C=C/C=C/C(=O)O)CC[C@]2(CO2)[C@H]1[C@@]1(C)O[C@@H]1CC=C(C)C
activity change, negative = inhibition [4]: inconclusive: -2.35%

C[C@]12CC[C@@H]3c4ccc(O)cc4CC[C@H]3[C@@H]1CC[C@@H]2O
Potency [5]: inactive | Potency [6]: inactive

Cc1cc(-c2ccc(N=Nc3ccc4c(S(=O)(=O)O)cc(S(=O)(=O)O)c(N)c4c3O)c(C)c2)ccc1N=Nc1ccc2c(S(=O)(=O)O)cc(S(=O)(=O)O)c(N)c2c1O
Potency [7]: inconclusive: 2.67 µM [inhibitor, full curve]

CCCCC(CC)COC(=O)c1ccc(N(C)C)cc1 (stereo not given)
Potency [8]: inconclusive: 84.1 µM [inhibitor, single point]

C=CC/C=C\C/C=C\CCCCCCCc1cccc(O)c1C(=O)O
Potency [9]: inconclusive: 17.2 µM [inhibitor, full curve]

CC1C(O)C(O)C2C(C(=O)OCCc3ccc(O)cc3)=COC(O[C@@H]3O[C@H](CO)[C@@H](O)[C@H](O)[C@H]3O)C12 (stereo not given in full)
Potency [10]: inconclusive: 19.2 µM [inhibitor, partial curve, poor fit]

CC(C)(C)NC(=O)[C@@H]1C[C@@H]2CCCC[C@@H]2CN1C[C@@H](O)[C@H](Cc1ccccc1)NC(=O)[C@H](CC(N)=O)NC(=O)c1ccc2ccccc2n1
caspase-3 activation [11]: active: 116% | caspase-3 activation [12]: inconclusive: 147% | Potency [13]: inconclusive: 79.4 µM [cytotoxic, single point] | Potency [14]: inconclusive: 50.1 µM [cytotoxic, partial curve] | Potency [15]: inconclusive: 79.4 µM [cytotoxic, single point] | Potency [16]: active: 50.1 µM

CC/C=C\C/C=C\C/C=C\CCCCCCCC(=O)O
Potency [17]: inconclusive: 50.1 µM [cytotoxic, partial curve] | Potency [18]: inconclusive: 15.8 µM [inhibitor, single point] | Potency [19]: inconclusive: 0.199 µM [inhibitor, full curve]

CCOC(=O)c1ccc(O)c(O)c1
Potency [20]: inactive

Source: PubChem BioAssay (NCATS)
